# From the supplement of paper PMC8728848
# Some of the results follow.
# Columns and labels:
# Test in all cases: glycan array binding signal (z-score within array); higher = stronger binding
# Settings in all cases: glycan notation: IUPAC condensed, linker removed
# [1] = target: Neu5Ac(a2-3)Gal(b1-3)GalNAc(b1-3)Gal(a1-4)Gal(b1-4)Glc
# In short: (§1)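 Glycan array binding is given as a within-array Z-score, which can be read as non-binding when negative. The arrays, 3228 of them, came from the Consortium for Functional Glycomics database and were retained only where the protein sequence was available. Z-scores were averaged across arrays of the same protein sequence at different concentrations or buffers and across linkers.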
# [2] = target: Neu5Ac(a2-3)Gal(b1-3)GalNAc(b1-4)[Neu5Ac(a2-3)]Gal(b1-4)Glc
# In short: as §1
# [3] = target: Neu5Ac(a2-3)Gal(b1-3)GalNAc6S
# In short: as §1
# [4] = target: Neu5Ac(a2-3)Gal(b1-3)GlcNAc
# In short: as §1
# [5] = target: Neu5Ac(a2-3)Gal(b1-3)GlcNAc(b1-3)Gal(b1-4)GlcNAc
# In short: as §1
# [6] = target: Neu5Ac(a2-3)Gal(b1-3)GlcNAc6S
# In short: as §1
# [7] = target: Neu5Ac(a2-3)Gal(b1-3)[Fuc(a1-4)]GlcNAc
# In short: as §1
# [8] = target: Neu5Ac(a2-3)Gal(b1-3)[Fuc(a1-4)]GlcNAc(b1-3)Gal(b1-4)[Fuc(a1-3)]GlcNAc
# In short: as §1
# [9] = target: Neu5Ac(a2-3)Gal(b1-3)[Neu5Ac(a2-3)Gal(b1-4)]GlcNAc
# In short: as §1
# [10] = target: Neu5Ac(a2-3)Gal(b1-3)[Neu5Ac(a2-6)]GalNAc
# In short: as §1
# [11] = target: Neu5Ac(a2-3)Gal(b1-4)Glc
# In short: as §1
# [12] = target: Neu5Ac(a2-3)Gal(b1-4)GlcNAc
# In short: as §1
# [13] = target: Neu5Ac(a2-3)Gal(b1-4)GlcNAc(b1-3)Gal(b1-4)GlcNAc
# In short: as §1
# [14] = target: Neu5Ac(a2-3)Gal(b1-4)GlcNAc(b1-3)Gal(b1-4)GlcNAc(b1-3)Gal(b1-4)GlcNAc
# In short: as §1
# [15] = target: Neu5Ac(a2-3)Gal(b1-4)GlcNAc(b1-3)Gal(b1-4)[Fuc(a1-3)]GlcNAc
# In short: as §1
# [16] = target: Neu5Ac(a2-3)Gal(b1-4)GlcNAc6S
# In short: as §1
# [17] = target: Neu5Ac(a2-3)Gal(b1-4)[Fuc(a1-3)]GlcNAc
# In short: as §1
# [18] = target: Neu5Ac(a2-3)Gal(b1-4)[Fuc(a1-3)]GlcNAc(b1-3)Gal
# In short: as §1
# [19] = target: Neu5Ac(a2-3)Gal(b1-4)[Fuc(a1-3)]GlcNAc(b1-3)Gal(b1-4)GlcNAc
# In short: as §1
# [20] = target: Neu5Ac(a2-3)Gal(b1-4)[Fuc(a1-3)]GlcNAc(b1-3)Gal(b1-4)[Fuc(a1-3)]GlcNAc(b1-3)Gal(b1-4)[Fuc(a1-3)]GlcNAc
# In short: as §1
# [21] = target: Neu5Ac(a2-3)Gal(b1-4)[Fuc(a1-3)]GlcNAc6S
# In short: as §1
# [22] = target: Neu5Ac(a2-3)Gal6S(b1-4)GlcNAc
# In short: as §1
# [23] = target: Neu5Ac(a2-3)Gal6S(b1-4)[Fuc(a1-3)]GlcNAc
# In short: as §1
# [24] = target: Neu5Ac(a2-3)GalNAc
# In short: as §1
# [25] = target: Neu5Ac(a2-3)GalNAc(b1-4)GlcNAc
# In short: as §1
# [26] = target: Neu5Ac(a2-3)[GalNAc(b1-4)]Gal(b1-4)Glc
# In short: as §1
# [27] = target: Neu5Ac(a2-3)[GalNAc(b1-4)]Gal(b1-4)GlcNAc
# In short: as §1
# [28] = target: Neu5Ac(a2-3)[Neu5Ac(a2-6)]GalNAc
# In short: as §1
# [29] = target: Neu5Ac(a2-6)Gal(b1-4)GlcNAc
# In short: as §1
# [30] = target: Neu5Ac(a2-6)Gal(b1-4)GlcNAc(b1-2)Man(a1-3)[Neu5Ac(a2-6)Gal(b1-4)GlcNAc(b1-2)Man(a1-6)]Man(b1-4)GlcNAc(b1-4)GlcNAc
# In short: as §1
# [31] = target: Neu5Ac(a2-6)Gal(b1-4)GlcNAc(b1-3)Gal(b1-4)GlcNAc
# In short: as §1
# [32] = target: Neu5Ac(a2-6)Gal(b1-4)GlcNAc(b1-3)Gal(b1-4)[Fuc(a1-3)]GlcNAc(b1-3)Gal(b1-4)[Fuc(a1-3)]GlcNAc
# In short: as §1
# [33] = target: Neu5Ac(a2-6)Gal(b1-4)GlcNAc6S
# In short: as §1
# [34] = target: Neu5Ac(a2-6)GalNAc
# In short: as §1
# [35] = target: Neu5Ac(a2-6)GalNAc(b1-4)GlcNAc
# In short: as §1
# [36] = target: Neu5Ac(a2-8)Neu5Ac
# In short: as §1
# [37] = target: Neu5Ac(a2-8)Neu5Ac(a2-3)Gal(b1-4)Glc
# In short: as §1
# [38] = target: Neu5Ac(a2-8)Neu5Ac(a2-3)[GalNAc(b1-4)]Gal(b1-4)Glc
# In short: as §1
# [39] = target: Neu5Ac(a2-8)Neu5Ac(a2-8)Neu5Ac
# In short: as §1
# [40] = target: Neu5Ac(a2-8)Neu5Ac(a2-8)Neu5Ac(a2-3)Gal(b1-4)Glc
# In short: as §1
# [41] = target: Neu5Ac(a2-8)Neu5Ac(a2-8)Neu5Ac(a2-3)[GalNAc(b1-4)]Gal(b1-4)Glc
# In short: as §1
# [42] = target: Neu5Ac(a2-8)Neu5Ac(a2-8)Neu5Ac(a2-8)Neu5Ac(a2-3)[GalNAc(b1-4)]Gal(b1-4)Glc
# In short: as §1
# [43] = target: Neu5Ac9Ac(a2-6)Gal(b1-4)GlcNAc
# In short: as §1
# [44] = target: Neu5Gc(a2-3)Gal(b1-3)GlcNAc
# In short: as §1
# [45] = target: Neu5Gc(a2-3)Gal(b1-3)[Fuc(a1-4)]GlcNAc
# In short: as §1
# [46] = target: Neu5Gc(a2-3)Gal(b1-4)Glc
# In short: as §1
# [47] = target: Neu5Gc(a2-3)Gal(b1-4)GlcNAc
# In short: as §1
# [48] = target: Neu5Gc(a2-3)Gal(b1-4)[Fuc(a1-4)]GlcNAc
# In short: as §1
# [49] = target: Neu5Gc(a2-6)Gal(b1-4)GlcNAc
# In short: as §1
# [50] = target: Neu5Gc(a2-6)GalNAc
# In short: as §1
binder,measurement,setting,value
CVNH3T (Magnaporthe grisea) (protein) GSHIGPYGNYAGNFSGSSRDICLDGARLRAECRRGDGGYSTSVIDLNRYLSNDNGHFRWVSGGGGGGGTATVTVQQGDTLRDIGRRFDCDFHEIARRNNIQNEDLIYPGQVLQVPTKGGSGGGAGNFWDSARDVRLVDGGKVLEAELRYSGGWNRSRIYLDEHIGNRNGELIHC,glycan array binding signal (z-score),[1],6.23
same,glycan array binding signal (z-score),[2],-0.185
same,glycan array binding signal (z-score),[3],-0.23
same,glycan array binding signal (z-score),[4],-0.152
same,glycan array binding signal (z-score),[5],-0.24
same,glycan array binding signal (z-score),[6],-0.233
same,glycan array binding signal (z-score),[7],-0.241
same,glycan array binding signal (z-score),[8],0.849
same,glycan array binding signal (z-score),[9],-0.242
same,glycan array binding signal (z-score),[10],-0.191
same,glycan array binding signal (z-score),[11],-0.195
same,glycan array binding signal (z-score),[12],-0.144
same,glycan array binding signal (z-score),[13],-0.23
same,glycan array binding signal (z-score),[14],-0.24
same,glycan array binding signal (z-score),[15],-0.236
same,glycan array binding signal (z-score),[16],-0.224
same,glycan array binding signal (z-score),[17],-0.232
same,glycan array binding signal (z-score),[18],-0.217
same,glycan array binding signal (z-score),[19],-0.202
same,glycan array binding signal (z-score),[20],-0.233
same,glycan array binding signal (z-score),[21],-0.23
same,glycan array binding signal (z-score),[22],-0.23
same,glycan array binding signal (z-score),[23],-0.226
same,glycan array binding signal (z-score),[24],-0.225
same,glycan array binding signal (z-score),[25],-0.208
same,glycan array binding signal (z-score),[26],-0.234
same,glycan array binding signal (z-score),[27],-0.215
same,glycan array binding signal (z-score),[28],-0.233
same,glycan array binding signal (z-score),[29],-0.171
same,glycan array binding signal (z-score),[30],-0.213
same,glycan array binding signal (z-score),[31],-0.222
same,glycan array binding signal (z-score),[32],-0.232
same,glycan array binding signal (z-score),[33],-0.228
same,glycan array binding signal (z-score),[34],-0.209
same,glycan array binding signal (z-score),[35],-0.227
same,glycan array binding signal (z-score),[36],-0.235
same,glycan array binding signal (z-score),[37],-0.23
same,glycan array binding signal (z-score),[38],-0.237
same,glycan array binding signal (z-score),[39],-0.237
same,glycan array binding signal (z-score),[40],-0.237
same,glycan array binding signal (z-score),[41],0.944
same,glycan array binding signal (z-score),[42],-0.235
same,glycan array binding signal (z-score),[43],-0.223
same,glycan array binding signal (z-score),[44],-0.226
same,glycan array binding signal (z-score),[45],-0.175
same,glycan array binding signal (z-score),[46],-0.23
same,glycan array binding signal (z-score),[47],-0.227
same,glycan array binding signal (z-score),[48],-0.222
same,glycan array binding signal (z-score),[49],-0.221
same,glycan array binding signal (z-score),[50],-0.224
